Assay results reported in the supplement of paper PMC4967469.

How the values were obtained:
Assay in all cases: Viability of human cancer cell lines after 72 h of drug (GDSC screen)
[1] = compound: CCN1CCN(Cc2ccc(NC(=O)c3ccc(C)c(/C=C/c4cnc5[nH]ccc5c4OC)c3)cc2C(F)(F)F)CC1 [HG-6-64-1]; conditions: top dose 5.12 µM; top dose inferred
Experimental: (§1)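 Human cancer cell lines in 384-well plates, medium with 10% serum, drug for 72 h over a 256-fold dose range (nine 2-fold or five 4-fold steps up to the top dose). Adherent lines were fixed and stained with the nucleic acid dye Syto60, suspension lines read with resazurin; signal relative to control wells, capped at 0 and 100%. One two-parameter sigmoid per drug and line, fitted in a mixed model over all curves with the slope shared within a line.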

[2] = compound: COc1cc2nccc(Oc3ccc(NC(=O)Nc4cc(C)on4)c(Cl)c3)c2cc1OC [AV-951]; conditions: top dose 0.128 µM; top dose inferred
Experimental: as §1

[3] = compound: CCc1cncnc1N1CCN(Cc2nc3ccc(C(F)(F)F)cc3[nH]2)CC1 [PF-4708671]; conditions: top dose 10 µM; top dose inferred
Experimental: as §1

[4] = compound: CC(=O)Nc1cccc(-n2c(=O)n(C3CC3)c(=O)c3c(Nc4ccc(I)cc4F)n(C)c(=O)c(C)c32)c1 [Trametinib]; conditions: top dose 1 µM
Experimental: as §1

[5] = compound: O=C(NC(COc1ccc2[nH]c(=O)[nH]c2c1)c1ccccc1)c1cccn(Cc2ccc(F)c(F)c2)c1=O [KIN001-244]; conditions: top dose 20 µM; top dose inferred
Experimental: as §1

[6] = compound: CCNC(=O)C[C@@H]1N=C(c2ccc(Cl)cc2)c2cc(OC)ccc2-n2c(C)nnc21 [I-BET-762]; conditions: top dose 20 µM; top dose inferred
Experimental: as §1

Cell Line | AUC [1] | IC50 [1] [nM] | AUC [2] | IC50 [2] [nM] | AUC [3] | IC50 [3] [µM] | AUC [4] | IC50 [4] [nM] | AUC [5] | IC50 [5] [µM] | AUC [6] | IC50 [6] [µM]
RERF-LC-KJ (lung adenocarcinoma, adherent) | 0.955 | > 5120 | 0.987 | > 128 | 0.987 | > 10 | 0.943 | > 1000 | 0.923 | > 20 | 0.967 | > 20
RERF-LC-MS (lung adenocarcinoma, adherent) | 0.937 | > 5120 | 0.985 | > 128 | 0.905 | > 10 | 0.587 | 109 | 0.894 | > 20 | 0.977 | > 20
RERF-LC-Sq1 (lung squamous cell carcinoma, adherent) | 0.97 | > 5120 | 0.97 | > 128 | 0.884 | > 10 | 0.637 | – | 0.911 | > 20 | 0.968 | > 20
RKN (ovary, adherent) | 0.922 | > 5120 | 0.981 | > 128 | 0.979 | > 10 | 0.157 | 5.09 | 0.877 | > 20 | 0.904 | > 20
RO82-W-1 (thyroid, adherent) | 0.765 | 2390 | 0.976 | > 128 | 0.951 | > 10 | 0.589 | 117 | 0.885 | > 20 | 0.953 | > 20
RPMI-2650 (head and neck, adherent) | 0.442 | 220 | 0.979 | > 128 | 0.976 | > 10 | 0.922 | > 1000 | 0.851 | 17.3 | 0.92 | > 20
RT4 (bladder, adherent) | 0.706 | 1260 | 0.981 | > 128 | 0.986 | > 10 | 0.622 | 138 | 0.857 | 17.7 | 0.935 | > 20
RT-112 (bladder, adherent) | 0.593 | 586 | 0.97 | > 128 | 0.977 | > 10 | 0.783 | 456 | 0.825 | 13.2 | 0.982 | > 20
RVH-421 (melanoma, adherent) | 0.752 | 2270 | 0.968 | > 128 | 0.964 | > 10 | 0.398 | 29.6 | 0.704 | 5.87 | 0.868 | > 20
SAS (head and neck, adherent) | 0.924 | > 5120 | 0.984 | > 128 | 0.887 | > 10 | 0.45 | 45 | 0.845 | 16.9 | 0.91 | > 20
SAT (head and neck, adherent) | 0.864 | > 5120 | 0.973 | > 128 | 0.818 | > 10 | 0.4 | 28.5 | 0.866 | > 20 | 0.875 | > 20
SBC-5 (small cell lung carcinoma, adherent) | 0.854 | 2920 | 0.993 | > 128 | 0.953 | > 10 | 0.947 | > 1000 | 0.963 | > 20 | 0.993 | > 20
SCC-4 (head and neck, adherent) | 0.83 | 4080 | 0.984 | > 128 | 0.899 | > 10 | 0.778 | 482 | 0.936 | > 20 | 0.966 | > 20
SCC-9 (head and neck, adherent) | 0.674 | 1130 | 0.969 | > 128 | 0.937 | > 10 | 0.415 | 34.3 | 0.81 | 14.3 | 0.933 | > 20
SCC-15 (head and neck, adherent) | 0.829 | 4810 | 0.98 | > 128 | 0.969 | > 10 | 0.373 | 24.7 | 0.856 | > 20 | 0.937 | > 20
SCC-25 (head and neck, adherent) | 0.731 | 1610 | 0.982 | > 128 | 0.98 | > 10 | 0.394 | 30.8 | 0.785 | 9.82 | 0.942 | > 20
SF295 (glioma, adherent) | 0.751 | 1810 | 0.978 | > 128 | 0.913 | > 10 | 0.724 | 287 | 0.882 | > 20 | 0.95 | > 20
SJRH30 (rhabdomyosarcoma, adherent) | 0.8 | 2570 | 0.98 | > 128 | 0.966 | > 10 | 0.921 | > 1000 | 0.981 | > 20 | 0.925 | > 20
SK-CO-1 (large intestine, adherent) | 0.836 | 3130 | 0.988 | > 128 | 0.97 | > 10 | 0.114 | 3.93 | 0.936 | > 20 | 0.96 | > 20
SK-HEP-1 (liver, adherent) | 0.513 | 346 | 0.989 | > 128 | 0.975 | > 10 | 0.578 | 101 | 0.897 | > 20 | 0.983 | > 20
SK-LU-1 (lung adenocarcinoma, adherent) | 0.61 | 697 | 0.98 | > 128 | 0.968 | > 10 | 0.61 | 136 | 0.901 | > 20 | 0.951 | > 20
SK-MEL-3 (melanoma, adherent) | 0.771 | 2270 | 0.976 | > 128 | 0.984 | > 10 | 0.333 | 19.7 | 0.757 | 7.91 | 0.782 | 9.82

IC50 is the fitted dose that halves viability relative to control wells, and lower means more sensitive; a fit beyond the top or the lowest dose is shown as a bound at that dose. AUC is the area under the same curve over the 256-fold range up to the top dose, as a fraction: 1 means no effect, lower means more sensitive. For some assays here: Any top dose called inferred was calculated from the reported fits.
